In patent publication US20020086014A1 (Bristol-Myers Squibb, published 2002):

Biological target: T1, mouse B7.1 expressed on LtkmB7.1 cells (mouse, UniProt Q00609 38-306)
T1 construct: whole, on cells; also called murine B7.1; B7.1 on Ltk mB7.1
T1 sequence (looked up): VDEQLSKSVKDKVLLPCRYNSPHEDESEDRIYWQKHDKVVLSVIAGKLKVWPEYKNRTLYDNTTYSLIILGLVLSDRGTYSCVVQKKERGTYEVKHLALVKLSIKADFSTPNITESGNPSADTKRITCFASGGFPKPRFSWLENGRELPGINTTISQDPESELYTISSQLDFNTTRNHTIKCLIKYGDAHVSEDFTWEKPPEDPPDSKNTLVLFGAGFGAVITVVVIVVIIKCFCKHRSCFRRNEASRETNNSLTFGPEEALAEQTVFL
Assay: binding of HPLC fractions to LtkmB7.1 cells

binding result: binds
B1: Purified recombinant CTLA-4 extracellular fragment (receptor)
chain: not shown
notes: extracellular domain; Made by Factor Xa cleavage after the C-terminus of the extracellular domain; also called Extracellular CTLA-4 fragment; CTLA-4 fragment
